Screen size: about 310,000 compounds; about 2,200 (0.71%) showed an effect of 50% or more. Effects have a minus sign here. The list shows a part of the results.
Target: human ether-à-go-go-related gene (hERG) potassium channel (human, UniProt Q12809)
Assay: primary screen, population patch clamp on CHO cells stably expressing hERG

Sequence of human ether-à-go-go-related gene (hERG) potassium channel (Q12809 whole entry, looked up): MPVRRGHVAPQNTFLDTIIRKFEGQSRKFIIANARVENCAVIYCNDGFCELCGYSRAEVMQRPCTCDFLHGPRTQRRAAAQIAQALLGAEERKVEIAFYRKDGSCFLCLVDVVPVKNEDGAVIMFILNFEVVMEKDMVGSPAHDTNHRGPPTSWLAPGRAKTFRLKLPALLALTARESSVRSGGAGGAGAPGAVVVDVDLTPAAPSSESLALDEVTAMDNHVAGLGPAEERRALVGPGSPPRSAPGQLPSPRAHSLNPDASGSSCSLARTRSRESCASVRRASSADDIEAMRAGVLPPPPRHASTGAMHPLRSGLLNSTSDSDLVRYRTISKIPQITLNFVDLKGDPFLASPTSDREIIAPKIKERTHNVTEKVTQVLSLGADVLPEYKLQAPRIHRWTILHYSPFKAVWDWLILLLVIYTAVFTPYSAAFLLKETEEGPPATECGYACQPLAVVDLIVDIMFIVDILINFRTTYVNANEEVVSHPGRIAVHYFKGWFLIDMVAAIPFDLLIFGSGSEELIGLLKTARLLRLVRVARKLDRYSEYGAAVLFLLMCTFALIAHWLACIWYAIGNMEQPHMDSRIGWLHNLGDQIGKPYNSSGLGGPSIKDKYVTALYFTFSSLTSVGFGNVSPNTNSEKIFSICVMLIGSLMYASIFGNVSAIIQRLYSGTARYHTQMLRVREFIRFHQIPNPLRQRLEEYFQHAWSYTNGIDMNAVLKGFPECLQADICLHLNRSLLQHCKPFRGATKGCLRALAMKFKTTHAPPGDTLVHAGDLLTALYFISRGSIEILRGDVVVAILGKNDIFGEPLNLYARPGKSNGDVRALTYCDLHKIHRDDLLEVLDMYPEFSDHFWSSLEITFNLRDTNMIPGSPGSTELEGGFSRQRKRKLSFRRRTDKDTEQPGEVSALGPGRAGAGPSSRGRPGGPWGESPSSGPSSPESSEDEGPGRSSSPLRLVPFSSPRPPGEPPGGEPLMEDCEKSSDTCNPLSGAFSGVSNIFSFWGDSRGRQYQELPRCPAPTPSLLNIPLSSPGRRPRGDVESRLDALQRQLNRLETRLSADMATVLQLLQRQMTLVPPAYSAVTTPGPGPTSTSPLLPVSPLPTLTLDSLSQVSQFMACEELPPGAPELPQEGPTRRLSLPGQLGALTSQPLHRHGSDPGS

SMILES | hERG current change (%, negative = inhibition) at 1uM
COc1ccc2[nH]c3c(c2c1)CCN1C(=O)N([C@@H](C)C(=O)NCc2ccccc2)C(=O)[C@]31C | 2.82%
CN(C(=O)Cn1cc(C#N)c2ccccc21)c1ccccc1 | -0.978%
Cc1cc(/C=N/n2c(COc3ccccc3)nc3ccccc3c2=O)c(O)c([N+](=O)[O-])c1 | 0.106%
CN(C)c1ccc(-n2cc3c(=O)n(C)c(=O)n(C)c3c2)cc1 | 7.08%
O=C(COC(=O)c1cccc(S(=O)(=O)NCc2ccccc2)c1)NCC1CCCO1 (stereo not shown) | 6.21%
O=C(O)COc1ccccc1C1C2C(=O)N(c3ccc(F)cc3)C(=O)C2ON1c1ccccc1 (stereo not shown) | -5.85%
O=C(NCCc1cn2ccccc2n1)c1ccc(Br)o1 | -15%
COc1cc(C)nc(Oc2ccc(=O)[nH]n2)n1 | 7.36%
CCC(=O)N/C=C/n1cnc2cc(C(F)(F)F)ccc21 | 2.72%
COc1cc(C(=O)N2CCN(CC(O)COc3ccccc3)CC2)cc(OC)c1OC (stereo not shown) | 11.8%
O=C(NNC(=S)NC1CCCCC1)c1cccc(S(=O)(=O)Nc2ccccc2Cl)c1 | 12.3%
c1ccc(CCNc2ncnc3c2cnn3-c2ccccc2)cc1 | -9.08%
CCn1c(O)c(C=NCCc2c[nH]c3ccccc23)c(=O)[nH]c1=O | 22.9%
Cc1noc(/C=C/N(C)C)c1S(=O)(=O)N1CCCC(C(=O)NCc2ccc(Cl)cc2)C1 (stereo not shown) | 9.92%
O=C1C2C3C=CC(C3)C2C(=O)N1c1ccc(-c2nc3ccccc3c(=O)o2)cc1 (stereo not shown) | 1.72%
CCCNC(=O)c1ccc2c(c1)nc(C)n2-c1cccc(C)c1 | 13.2%
O=C(CCC(=O)OCC(=O)c1ccc([N+](=O)[O-])cc1)NC1CCCCC1 | 10.2%
COc1ccc(C(C(N)=O)c2ncc(C(F)(F)F)cc2Cl)cc1 (stereo not shown) | 5.25%
O=C(OCC(=O)N1CCN(c2cccc(Cl)c2)CC1)c1ccco1 | 11.4%
O=C(COC(=O)c1ccc(Br)o1)NCCc1ccccc1 | 9.51%
Cc1nc(N2CCOCC2)[nH]c(=O)c1C | 13.9%
CSc1ccc(CN(C)CC(=O)NC(=O)NCCC2=CCCCC2)cc1 | -1.53%

SMILES | hERG current change (%, negative = inhibition) at 1uM
COC(=O)c1cc(-c2ccc(S(=O)(=O)N3CCCC(C)C3)cc2)c(C(F)(F)F)s1 (stereo not shown) | 6.46%
Cc1cc(Br)ccc1OCc1nc(-c2cccnc2)no1 | 11.8%
CCN(CC)C(=O)c1ccc2nc(-c3ccccc3)c(-c3ccccc3)nc2c1 | 7.94%
COc1cc(/C=C/C(=O)N(C)CC(=O)Nc2ccccc2Br)cc2c1OCCO2 | 4.04%
CC1CCc2c(sc(NC(=O)/C=C/c3cccs3)c2C(=O)O)C1 (stereo not shown) | 16.7%
COc1cc2nc(N(CCN(C)C)C(=O)c3ccc4ccccc4c3)sc2cc1OC.Cl | -1.65%
O=C(c1cc(-c2cccc(Cl)c2)on1)N1CCc2ccccc2C1 | 11.8%
CCOP(=O)(OCC)C(Nc1ccc([N+](=O)[O-])cc1)c1ccc(Cl)cc1 (stereo not shown) | -48.7%
O=C(COc1ccc2ccc(=O)oc2c1)N1CCN(c2ccc(F)cc2)CC1 | 1.02%
Cc1cc(SCC(=O)N/N=C/c2ccc(O)cc2O)nc2ccccc12 | 12.7%
O=C(NNC1CC(=O)N(c2ccccc2)C1=O)c1ccco1 (stereo not shown) | 7.73%
Cc1ccc(S(=O)(=O)N=C2SCCCS2)cc1 | 4.6%
O=C1/C(=C/c2ccccc2)SC(=S)N1CCCC(=O)N1CCCCC1CCO (stereo not shown) | 8.82%
Cc1ccc(C)c(NC(=S)N(Cc2cccc(Br)c2)CC2CCC(C(=O)O)CC2)c1 (stereo not shown) | 6.31%
COc1cc(/C=C/C(=O)OCC(=O)N2c3ccccc3CC2C)cc(OC)c1OC (stereo not shown) | 10.1%
O=C(CCCCCn1c(=S)[nH]c2ccc(N3CCOCC3)cc2c1=O)NCc1ccccc1 | 8.2%
CCC(C(=O)OCC(=O)Nc1cccc(C(C)=O)c1)c1ccccc1 (stereo not shown) | 18%
CC(C)Nc1ccc(C(CC(N)=O)NC(=O)Cc2cccc3ccccc23)cc1[N+](=O)[O-] (stereo not shown) | -1.01%
CCN(CCO)Cc1csc2cccc(Br)c12.Cl | 0.578%
Cc1cccc(C)c1NC(=O)CS(=O)CC(=O)Nc1ccc(N2CCOCC2)cc1 (stereo not shown) | -1.58%
CC1=C(C(=O)Nc2cccnc2)C(c2ccc3c(c2)OCO3)C2=C(CCCC2=O)N1 (stereo not shown) | 18%

— article PMC4336329 (PLoS ONE, 2015)
